This is an account of results in article PMC10518494.

Results are given in words; binding and its absence hold for the method and conditions named. Binding seen in cells or lysates may run through a third protein. Some results given as binding are weak or reduced against the parent protein; the word gives no strength. For part of these data: Sequences can lack the tags named with a protein.

In one test the target is T1, Flag-Rnd3 (UniProt P61588).
T1 sequence: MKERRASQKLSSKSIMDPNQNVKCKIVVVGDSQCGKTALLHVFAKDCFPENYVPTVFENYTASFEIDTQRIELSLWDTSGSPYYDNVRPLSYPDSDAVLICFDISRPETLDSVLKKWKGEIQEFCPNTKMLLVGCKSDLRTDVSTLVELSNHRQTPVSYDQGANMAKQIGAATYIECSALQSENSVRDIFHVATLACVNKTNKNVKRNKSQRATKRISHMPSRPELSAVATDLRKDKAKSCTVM
In words: co-IP; lysates of primary aortic ECs transfected with tagged Rnd3 and tagged TRAF6 constructs; IP with anti-Flag or anti-Myc antibody, immunoblot for the tags; 500 ug lysate protein, 5 ug IP antibody, 12 h at 4°C, Protein A/G magnetic beads. On the technique in general: A western blot detects proteins with antibodies after separation by electrophoresis.

Test [1] deals with T2, tumor necrosis factor receptor-associated factor 6 (endogenous, mouse aortic endothelial cells) (mouse (endogenous in primary aortic ECs)) (UniProt P70196).
T2 sequence: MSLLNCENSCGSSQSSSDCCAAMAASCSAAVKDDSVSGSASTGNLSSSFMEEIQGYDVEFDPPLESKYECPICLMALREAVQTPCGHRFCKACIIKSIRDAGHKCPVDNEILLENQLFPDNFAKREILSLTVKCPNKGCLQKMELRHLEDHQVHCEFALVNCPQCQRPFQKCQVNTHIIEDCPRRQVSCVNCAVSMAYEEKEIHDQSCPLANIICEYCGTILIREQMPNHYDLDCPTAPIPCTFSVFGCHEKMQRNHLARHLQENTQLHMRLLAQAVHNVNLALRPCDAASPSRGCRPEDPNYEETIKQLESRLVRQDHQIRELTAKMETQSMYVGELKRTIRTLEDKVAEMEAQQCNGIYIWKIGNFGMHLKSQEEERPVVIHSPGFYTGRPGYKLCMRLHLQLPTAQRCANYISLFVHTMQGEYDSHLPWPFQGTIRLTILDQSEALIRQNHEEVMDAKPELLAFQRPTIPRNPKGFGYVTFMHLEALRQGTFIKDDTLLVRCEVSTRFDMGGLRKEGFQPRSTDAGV
In words: co-IP; IP with TRAF6 antibody from lysates of aortic ECs isolated from WT and Apoe KO mice, blot for Rnd3; 500 ug lysate protein, 5 ug IP antibody, 12 h at 4°C, Protein A/G magnetic beads.

The target of test [2] is T3, Myc-TRAF6 truncation mutant (110-522) (UniProt Q9Y4K3).
T3 sequence: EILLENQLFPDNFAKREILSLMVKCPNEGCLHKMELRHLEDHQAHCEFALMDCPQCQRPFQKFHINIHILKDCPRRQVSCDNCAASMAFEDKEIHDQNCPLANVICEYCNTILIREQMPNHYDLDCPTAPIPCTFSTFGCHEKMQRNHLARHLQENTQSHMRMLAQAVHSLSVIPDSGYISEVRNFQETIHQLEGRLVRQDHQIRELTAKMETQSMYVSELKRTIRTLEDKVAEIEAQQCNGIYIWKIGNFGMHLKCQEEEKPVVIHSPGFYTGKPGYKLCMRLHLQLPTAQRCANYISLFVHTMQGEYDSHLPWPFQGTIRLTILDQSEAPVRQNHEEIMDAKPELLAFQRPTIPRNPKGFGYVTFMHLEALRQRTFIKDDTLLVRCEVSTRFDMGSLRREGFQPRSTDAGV
In words: co-IP; lysates of primary aortic ECs transfected with tagged Rnd3 and tagged TRAF6 constructs; IP with anti-Flag or anti-Myc antibody, immunoblot for the tags; 500 ug lysate protein, 5 ug IP antibody, 12 h at 4°C, Protein A/G magnetic beads.

For test [3], the target named is T4, Myc-TRAF6 truncation mutant (260-522) (UniProt Q9Y4K3).
T4 sequence: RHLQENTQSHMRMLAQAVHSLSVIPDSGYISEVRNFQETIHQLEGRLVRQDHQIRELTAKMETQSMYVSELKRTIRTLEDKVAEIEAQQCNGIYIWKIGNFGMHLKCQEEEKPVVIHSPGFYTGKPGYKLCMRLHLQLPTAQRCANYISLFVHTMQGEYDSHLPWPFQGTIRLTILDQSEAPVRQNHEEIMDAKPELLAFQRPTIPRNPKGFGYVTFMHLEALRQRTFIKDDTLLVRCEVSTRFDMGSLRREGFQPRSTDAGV
The description is as above.

The target in test [4] is T5, Myc-TRAF6 truncation mutant (349-522) (UniProt Q9Y4K3).
T5 sequence: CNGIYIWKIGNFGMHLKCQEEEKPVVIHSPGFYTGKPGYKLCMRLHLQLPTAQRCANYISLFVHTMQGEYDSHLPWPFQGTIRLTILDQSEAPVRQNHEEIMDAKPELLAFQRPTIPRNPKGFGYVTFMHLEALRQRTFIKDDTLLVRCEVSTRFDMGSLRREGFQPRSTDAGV
The test is described as above.

B1: Ha-TRAF6 65-88 amino acid deletion mutant (protein, UniProt Q9Y4K3)
chain: MSLLNCENSCGSSQSESDCCVAMASSCSAVTKDDSVGGTASTGNLSSSFMEEIQGYDVEFDPPLFCKACIIKSIRDAGHKCPVDNEILLENQLFPDNFAKREILSLMVKCPNEGCLHKMELRHLEDHQAHCEFALMDCPQCQRPFQKFHINIHILKDCPRRQVSCDNCAASMAFEDKEIHDQNCPLANVICEYCNTILIREQMPNHYDLDCPTAPIPCTFSTFGCHEKMQRNHLARHLQENTQSHMRMLAQAVHSLSVIPDSGYISEVRNFQETIHQLEGRLVRQDHQIRELTAKMETQSMYVSELKRTIRTLEDKVAEIEAQQCNGIYIWKIGNFGMHLKCQEEEKPVVIHSPGFYTGKPGYKLCMRLHLQLPTAQRCANYISLFVHTMQGEYDSHLPWPFQGTIRLTILDQSEAPVRQNHEEIMDAKPELLAFQRPTIPRNPKGFGYVTFMHLEALRQRTFIKDDTLLVRCEVSTRFDMGSLRREGFQPRSTDAGV
As to B1, the binding result with Flag-Rnd3 is recorded as “no binding”.

B2: Rnd3 (endogenous, mouse aortic endothelial cells) (protein, UniProt P61588 1-244)
chain: MKERRASQKLSSKSIMDPNQNVKCKIVVVGDSQCGKTALLHVFAKDCFPENYVPTVFENYTASFEIDTQRIELSLWDTSGSPYYDNVRPLSYPDSDAVLICFDISRPETLDSVLKKWKGEIQEFCPNTKMLLVGCKSDLRTDVSTLVELSNHRQTPVSYDQGANMAKQIGAATYIECSALQSENSVRDIFHVATLACVNKTNKNVKRNKSQRATKRISHMPSRPELSAVATDLRKDKAKSCTVM
Regarding B2, in test [1], the binding result was “binds”.

B3: Flag-Rnd3 (protein, UniProt P61588 1-244)
chain: MKERRASQKLSSKSIMDPNQNVKCKIVVVGDSQCGKTALLHVFAKDCFPENYVPTVFENYTASFEIDTQRIELSLWDTSGSPYYDNVRPLSYPDSDAVLICFDISRPETLDSVLKKWKGEIQEFCPNTKMLLVGCKSDLRTDVSTLVELSNHRQTPVSYDQGANMAKQIGAATYIECSALQSENSVRDIFHVATLACVNKTNKNVKRNKSQRATKRISHMPSRPELSAVATDLRKDKAKSCTVM
As to B3, the binding entry in test [2], in test [3] and in test [4] was “no binding” in each case.

B4: Myc-TRAF6 (1-110) (domain or fragment, UniProt Q9Y4K3 1-110)
chain: MSLLNCENSCGSSQSESDCCVAMASSCSAVTKDDSVGGTASTGNLSSSFMEEIQGYDVEFDPPLESKYECPICLMALREAVQTPCGHRFCKACIIKSIRDAGHKCPVDNE
As to B4, the binding entry with Flag-Rnd3 is reported as “binds”.
